Measurements: PMC4336329 (PLoS ONE, 2015)
The campaign covered roughly 310,000 compounds. About 14,000 (4.5%) showed an effect of 50% or more. Effects have a minus sign here. This is one part of the list.

Each molecule was assayed against human ether-à-go-go-related gene (hERG) potassium channel (human, UniProt Q12809) (assay: primary screen, population patch clamp on CHO cells stably expressing hERG).
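Note: peak tail current of the secondary pulse compared with the same well before compound.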

Chain of human ether-à-go-go-related gene (hERG) potassium channel (Q12809 whole entry, looked up): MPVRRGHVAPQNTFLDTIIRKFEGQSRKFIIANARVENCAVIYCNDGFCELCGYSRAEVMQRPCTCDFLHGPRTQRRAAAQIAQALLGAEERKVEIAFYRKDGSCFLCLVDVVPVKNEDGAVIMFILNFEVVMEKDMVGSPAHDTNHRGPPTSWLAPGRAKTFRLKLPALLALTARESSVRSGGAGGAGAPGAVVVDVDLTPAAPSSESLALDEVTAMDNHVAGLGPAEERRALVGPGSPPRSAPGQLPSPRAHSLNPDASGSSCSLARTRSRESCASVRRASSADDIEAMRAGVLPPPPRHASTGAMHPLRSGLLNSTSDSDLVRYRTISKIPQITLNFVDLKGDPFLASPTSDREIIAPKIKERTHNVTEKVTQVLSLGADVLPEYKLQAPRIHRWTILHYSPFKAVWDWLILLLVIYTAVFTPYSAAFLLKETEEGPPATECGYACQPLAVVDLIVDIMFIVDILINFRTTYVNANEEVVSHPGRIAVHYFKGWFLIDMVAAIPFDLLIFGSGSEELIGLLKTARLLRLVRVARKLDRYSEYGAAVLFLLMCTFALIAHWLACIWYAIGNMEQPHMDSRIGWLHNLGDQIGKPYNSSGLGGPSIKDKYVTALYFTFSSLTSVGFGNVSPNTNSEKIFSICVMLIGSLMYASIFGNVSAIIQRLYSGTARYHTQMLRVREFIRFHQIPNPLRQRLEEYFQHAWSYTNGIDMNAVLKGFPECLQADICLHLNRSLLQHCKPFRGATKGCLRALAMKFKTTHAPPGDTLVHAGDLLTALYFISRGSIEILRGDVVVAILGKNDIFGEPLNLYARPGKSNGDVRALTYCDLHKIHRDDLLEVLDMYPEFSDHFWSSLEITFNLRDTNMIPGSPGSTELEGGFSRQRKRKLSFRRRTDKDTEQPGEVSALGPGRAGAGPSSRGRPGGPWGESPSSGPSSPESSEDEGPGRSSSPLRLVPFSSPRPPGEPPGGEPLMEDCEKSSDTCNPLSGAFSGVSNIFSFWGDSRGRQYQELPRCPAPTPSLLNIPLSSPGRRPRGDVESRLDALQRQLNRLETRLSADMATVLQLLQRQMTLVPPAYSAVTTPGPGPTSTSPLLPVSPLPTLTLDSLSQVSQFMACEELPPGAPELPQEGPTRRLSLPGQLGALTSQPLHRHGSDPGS

| Structure (SMILES) | hERG current change (%, negative = inhibition) at 10uM [%] |
| --- | --- |
| O=S(=O)(Nc1ncccn1)c1ccc(NC(=S)Nc2cccc(Cl)c2)cc1 | 19.1 |
| COc1ccccc1CN1CC(C(=O)N(C)CCCn2nc(C)cc2C)CCC1=O (stereo not drawn) | 1.41 |
| Cc1ccc(S(=O)(=O)N2CCOCC2)cc1NC(=O)c1cc2c(s1)CCC2 | -13.4 |
| Cc1nnc(N(Cc2ccccc2)C(=O)c2cnccn2)s1 | 11.6 |
| O=C(CCN1C(=O)/C(=C/c2ccc(Cl)cc2)SC1=S)NCCCn1ccnc1 | -23.4 |
| O=[N+]([O-])c1ccc(Sc2ccccn2)nc1 | 10.8 |
| C=CCn1c(SCc2ccc(Cl)cc2)nc2cc(C(=O)N3CCC(C(N)=O)CC3)ccc2c1=O | -33.3 |
| COc1ccc(C(=O)N2CCOC2CNC(=O)C(=O)NCc2ccccc2Cl)cc1 (stereo not drawn) | -0.13 |
| Br.COc1ccc(C(=O)Cn2c(NCCCO)nc3ccccc32)cc1OC | -5.82 |
| CN(C)CC(=O)Nc1ccc(Oc2ccc(Cl)cc2)cc1.Cl | 24.5 |
| Cc1c(CC(=O)O)c(=O)oc2cc(OCc3ccc(Br)cc3)ccc12 | 18.5 |
| N#Cc1cccc(C(=O)OCC(=O)c2ccc3c(c2)NC(=O)CO3)c1 | 7.1 |
| O=C(NCCc1ccc(F)cc1)Nc1ccc([N+](=O)[O-])cc1 | -12 |
| COc1cccc(Nc2c3c(nc4c(-c5ccccc5)c(C)nn24)CCC3)c1 | -2.06 |
| CCc1c(O)nc(SCC(=O)Nc2cc(C)on2)n(-c2ccccc2)c1=O | 3.39 |
| N#CCC(=O)Nc1sc2c(c1C(N)=O)CCCC2 | -9.21 |
| Cc1cc(N2C(=O)CC(N3CCC(n4c(=O)[nH]c5ccccc54)CC3)C2=O)no1 (stereo not drawn) | 2.34 |
| Cc1cc(C)cc(NC(=O)CN2CCN(c3ncccn3)CC2)c1 | -12.1 |
| O=C(NCc1ccccc1Cl)c1ccc(S(=O)(=O)N2CCCC2)cc1 | -6.88 |

| Structure (SMILES) | hERG current change (%, negative = inhibition) at 10uM [%] |
| --- | --- |
| COc1ccc(C(=O)Nc2sc3c(c2C(=O)NCc2ccco2)CCCC3)cc1OC | -20.1 |
| CN(C)S(=O)(=O)c1cccc(NC(=O)COC(=O)c2ccc3c(c2)OCO3)c1 | -19.4 |
| COc1ccc(/C=C/C(=O)Nc2ccccc2C(F)(F)F)cc1OC | -4.62 |
| O=c1c(C(c2ccc(Br)cc2)c2c(O)nc3n(c2=O)CCCS3)c(O)nc2n1CCCS2 | 6.44 |
| CNS(=O)(=O)c1cc(NC(=O)CCNC(=O)c2ccco2)ccc1C | 11.3 |
| O=C(N/N=C/C=C/c1ccco1)C(O)c1ccccc1 (stereo not drawn) | 12.4 |
| CCOc1cc(/C=C\[N+](=O)[O-])ccc1OCC(=O)Nc1ccccc1C | -2.89 |
| Nn1c(C2CCC2)nc2cc(Cl)ccc2c1=O | -0.707 |
| O=C(Nc1cccc2cccnc12)c1cccnc1 | -8.96 |
| Cc1nc2cc3sc(C)nc3cc2s1 | 30.3 |
| CC/C=C/C(=O)N1CC2(CC(c3cccc(NC(=O)CC)c3)=NO2)C[C@H]1C(N)=O (stereo partly drawn) | 13.6 |
| Cc1cc([N+](=O)[O-])nn1CC(=O)NCCc1c[nH]c2ccccc12 | 17.9 |
| NNC(=S)NC1CCS(=O)(=O)C1 (stereo not drawn) | 22.1 |
| Cc1cc(C)cc(-c2nnc(SCC(=O)NC3CC3)o2)c1 | -1.77 |
| CC(Sc1ncccn1)C(=O)NC1(C#N)CCCCC1 (stereo not drawn) | 1.49 |
| COc1ccc(CNC(=O)C2CCCN(c3nccc(C)n3)C2)cc1 (stereo not drawn) | -0.849 |
| CCOC(=O)NNC(=O)C12CC3CC(CC(C3)C1)C2 | 3.96 |
| O=C(CCCNC(=O)c1ccc(Cl)cc1)NCc1ccccc1Cl | 6.27 |
| Cc1nc(-c2ccccc2)nc(-c2ccccc2)n1 | -11.6 |

| Structure (SMILES) | hERG current change (%, negative = inhibition) at 10uM [%] |
| --- | --- |
| Cc1ccc(C)c(-n2nnnc2SCC(=O)c2c(N)n(C)c(=O)n(C)c2=O)c1 | 10.7 |
| CC(C)c1ccc(NC2CCCN(C(=O)CC3CCCC3)C2)cc1 (stereo not drawn) | -28 |
| Cc1ccc(CNC(=O)c2cc(Cl)cc(Cl)c2)n1C | -8.85 |
| COc1ccc(Cl)cc1NC(=O)C[n+]1ccccc1.[Cl-] | 15.2 |
| COc1cccc(NC(=O)Cn2c(=O)n(CC3CCCO3)c(=O)c3ccccc32)c1 (stereo not drawn) | 2.78 |
| Cc1ccc(C)c(S(=O)(=O)N2CCCOC2CNC(=O)C(=O)NCc2ccccc2)c1 (stereo not drawn) | -21.3 |
| CC(C)Oc1ccc(C(=O)NCCCNC(=O)c2ccccn2)cc1 | -0.573 |
| Cc1cc(C)n(C(C)CNS(=O)(=O)c2ccc(C)c(C)c2)n1 (stereo not drawn) | 24.4 |
| COc1cccc(CNC(=O)CSc2ccc(-c3ccccn3)nn2)c1 | 0.00278 |
| COc1cc(C=O)ccc1OCc1cccc(Br)c1 | -1.11 |
| CC(C)(C)c1cc(CCC(=O)NNC(=S)NC(=O)c2ccccc2)cc(C(C)(C)C)c1O | 2.36 |
| O=C1N2CCSC2=NC1(Nc1ccccn1)C(F)(F)F (stereo not drawn) | 19.3 |
| O=CNC(n1cnc2c(N3CCOCC3)ncnc21)C(Cl)(Cl)Cl (stereo not drawn) | 8.34 |
| Cc1ccc(NS(=O)(=O)c2ccc(C)c(C(=O)NCC(c3ccccc3)N(C)C)c2)cc1 (stereo not drawn) | -15.6 |
| Cc1ccc(Nc2cc(C)c3ccc(O)cc3n2)cc1C.Cl | -58.5 |
| Cc1cccc(N(C)S(=O)(=O)c2ccc(-c3cc(C)no3)s2)c1 | 6.83 |
| Cc1ccc(N/C(N)=N/c2nc(CSc3ccccn3)cc(=O)[nH]2)c(C)c1 | -3.78 |
| COc1ccc(CCNC(=O)CCNC(=O)c2ccco2)cc1OC | 20.2 |
| O=C(C1CCC(=O)N(C2CC2)C1)N1CCN(c2cccc(Cl)c2)CC1 (stereo not drawn) | 3.1 |
